From paper PMC9911399, “Two distinct binding modes provide the RNA-binding protein RbFox with extraordinary sequence specificity”
Positions count from the first letter of the chain named. This is one part of the list.

T1: RBFOX1 RRM (Homo sapiens, UniProt Q9NWB1 109-208)
T1 sequence: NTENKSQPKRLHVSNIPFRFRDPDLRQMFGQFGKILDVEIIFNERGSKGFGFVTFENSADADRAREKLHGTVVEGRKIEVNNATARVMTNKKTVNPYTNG

B1: UCUGGAG (DNA:RNA)
RNA: GGGAGACCGGAAUUCAGAUUGUCCUCUGGAGUUAAAUCCCGUCGUAGCCACCA
DNA 1: CAATCTGAATTCCGGTCTCCC
DNA 2: TGGTGGCTACGACGGGATT
B2: CCGGUAU (DNA:RNA)
RNA: B1 RNA with U25C, U27G, G29U, G31U
DNA 1: CAATCTGAATTCCGGTCTCCC
DNA 2: TGGTGGCTACGACGGGATT
B3: GUGAUAG (DNA:RNA)
RNA: B1 RNA with U25G, C26U, U27G, G28A, G29U
DNA 1: CAATCTGAATTCCGGTCTCCC
DNA 2: TGGTGGCTACGACGGGATT
B4: AUGAACC (DNA:RNA)
RNA: GGGAGACCGGAAUUCAGAUUGUCCAUGAACCUUAAAUCCCGUCGUAGCCACCA
DNA 1: CAATCTGAATTCCGGTCTCCC
DNA 2: TGGTGGCTACGACGGGATT
B5: AUUAGAA (DNA:RNA)
RNA: B4 RNA with G27U, A29G, C30A, C31A
DNA 1: CAATCTGAATTCCGGTCTCCC
DNA 2: TGGTGGCTACGACGGGATT
B6: CACAGAU (DNA:RNA)
RNA: B1 RNA with U25C, C26A, U27C, G28A, G31U
DNA 1: CAATCTGAATTCCGGTCTCCC
DNA 2: TGGTGGCTACGACGGGATT
B7: CCACAAC (DNA:RNA)
RNA: B4 RNA with A25C, U26C, G27A, A28C, C30A
DNA 1: CAATCTGAATTCCGGTCTCCC
DNA 2: TGGTGGCTACGACGGGATT
B8: UGAGACC (DNA:RNA)
RNA: B4 RNA with A25U, U26G, G27A, A28G
DNA 1: CAATCTGAATTCCGGTCTCCC
DNA 2: TGGTGGCTACGACGGGATT
B9: UCUUGGU (DNA:RNA)
RNA: B1 RNA with G28U, A30G, G31U
DNA 1: CAATCTGAATTCCGGTCTCCC
DNA 2: TGGTGGCTACGACGGGATT
B10: UCGAGGG (DNA:RNA)
RNA: B1 RNA with U27G, G28A, A30G
DNA 1: CAATCTGAATTCCGGTCTCCC
DNA 2: TGGTGGCTACGACGGGATT
B11: AAUAGGC (DNA:RNA)
RNA: B4 RNA with U26A, G27U, A29G, C30G
DNA 1: CAATCTGAATTCCGGTCTCCC
DNA 2: TGGTGGCTACGACGGGATT
B12: CUGCCGG (DNA:RNA)
RNA: B4 RNA with A25C, A28C, A29C, C30G, C31G
DNA 1: CAATCTGAATTCCGGTCTCCC
DNA 2: TGGTGGCTACGACGGGATT
B13: AUGGACG (DNA:RNA)
RNA: B4 RNA with A28G, C31G
DNA 1: CAATCTGAATTCCGGTCTCCC
DNA 2: TGGTGGCTACGACGGGATT
B14: UUCACGC (DNA:RNA)
RNA: B4 RNA with A25U, G27C, A29C, C30G
DNA 1: CAATCTGAATTCCGGTCTCCC
DNA 2: TGGTGGCTACGACGGGATT
B15: ACGGCUG (DNA:RNA)
RNA: B1 RNA with U25A, U27G, G29C, A30U
DNA 1: CAATCTGAATTCCGGTCTCCC
DNA 2: TGGTGGCTACGACGGGATT
B16: UGUCGUU (DNA:RNA)
RNA: B1 RNA with C26G, G28C, A30U, G31U
DNA 1: CAATCTGAATTCCGGTCTCCC
DNA 2: TGGTGGCTACGACGGGATT
B17: ACUGCCG (DNA:RNA)
RNA: B1 RNA with U25A, G29C, A30C
DNA 1: CAATCTGAATTCCGGTCTCCC
DNA 2: TGGTGGCTACGACGGGATT
B18: UGGACUU (DNA:RNA)
RNA: B4 RNA with A25U, U26G, A29C, C30U, C31U
DNA 1: CAATCTGAATTCCGGTCTCCC
DNA 2: TGGTGGCTACGACGGGATT
B19: GACAAGG (DNA:RNA)
RNA: B4 RNA with A25G, U26A, G27C, C30G, C31G
DNA 1: CAATCTGAATTCCGGTCTCCC
DNA 2: TGGTGGCTACGACGGGATT
B20: CGGCGGG (DNA:RNA)
RNA: B1 RNA with U25C, C26G, U27G, G28C, A30G
DNA 1: CAATCTGAATTCCGGTCTCCC
DNA 2: TGGTGGCTACGACGGGATT

Target: T1, RBFOX1 RRM
Experiment: EMSA; HiTS-Eq, 1 nM pool, 10 min; buffer printed only for the single-RNA assays: 10 mM Tris pH 7.5, 150 mM NaCl, 3.4 mM EDTA, 0.001% NP-40, 30 C
Conditions: tags: His6 N-terminal (pET28a); label: 5' 32P
In short: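 A pool of RNA with 7 randomized nucleotides, 5′-radiolabelled and with DNA-annealed flanks, was equilibrated at 1 nM for 10 min in 50 µL with purified RbFox RRM, wild type or mutant, across increasing protein concentrations. Free RNA was separated by 8% native PAGE, excised, reverse-transcribed, barcoded by PCR and sequenced. Relative association constants were obtained from read-count changes of each RNA species versus the control reaction and normalised to the cognate motif.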

Binder | binding signal
B1 | 0.00377 KA relative to UGCAUGU
B2 | 0.00696 KA relative to UGCAUGU
B3 | 0.0184 KA relative to UGCAUGU
B4 | 0.00862 KA relative to UGCAUGU
B5 | 0.006 KA relative to UGCAUGU
B6 | 0.00201 KA relative to UGCAUGU
B7 | 0.00168 KA relative to UGCAUGU
B8 | 0.00997 KA relative to UGCAUGU
B9 | 0.0216 KA relative to UGCAUGU
B10 | 0.0103 KA relative to UGCAUGU
B11 | 0.00524 KA relative to UGCAUGU
B12 | 0.0156 KA relative to UGCAUGU
B13 | 0.0115 KA relative to UGCAUGU
B14 | 0.0066 KA relative to UGCAUGU
B15 | 0.0167 KA relative to UGCAUGU
B16 | 0.021 KA relative to UGCAUGU
B17 | 0.0125 KA relative to UGCAUGU
B18 | 0.0249 KA relative to UGCAUGU
B19 | 0.0103 KA relative to UGCAUGU
B20 | 0.00981 KA relative to UGCAUGU
